From the BET-seq Pho4 binding data (Le et al. 2018)
Some of the results follow. The energies were worked out here from pooled read counts, against the library average; single values are noisy.

Molecular target: T1, Pho4 (S. cerevisiae) (UniProt P07270)
T1 sequence: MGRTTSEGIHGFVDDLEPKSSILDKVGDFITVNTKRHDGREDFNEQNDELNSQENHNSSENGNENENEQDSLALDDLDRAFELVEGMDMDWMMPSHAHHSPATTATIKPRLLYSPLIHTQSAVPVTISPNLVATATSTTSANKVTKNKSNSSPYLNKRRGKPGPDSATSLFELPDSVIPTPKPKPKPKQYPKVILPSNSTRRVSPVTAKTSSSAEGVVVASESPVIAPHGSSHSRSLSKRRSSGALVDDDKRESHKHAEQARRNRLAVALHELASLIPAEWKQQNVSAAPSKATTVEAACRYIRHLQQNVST
Assay: relative binding free energy (BET-seq); higher = weaker binding
Conditions: reference: library average

Row | Sequence | relative binding free energy
1 | GATGTCACGTGTTACT | 0.32 kcal/mol
2 | TTTTACACGTGTGTTG | 0.17 kcal/mol
3 | GGTGCCACGTGGGGCC | -0.21 kcal/mol
4 | TCGTTCACGTGTATGG | 0.34 kcal/mol
5 | AAGTGCACGTGGCGGA | 0.03 kcal/mol
6 | AGTAGCACGTGATTGT | -0.01 kcal/mol
7 | TGTCGCACGTGGGGGA | -0.2 kcal/mol
8 | GGGTGCACGTGCTGTT | -0.13 kcal/mol
9 | TGCGTCACGTGGGGTT | -0.03 kcal/mol
10 | TCGTGCACGTGAGATT | 0.18 kcal/mol
11 | AAGTACACGTGACTGT | 0.38 kcal/mol
12 | TTATGCACGTGAGTGG | 0.15 kcal/mol
13 | TATATCACGTGCGTAT | 0.05 kcal/mol
14 | GTAGGCACGTGTGGGC | 0.13 kcal/mol
15 | ACATTCACGTGGTGGT | 0.16 kcal/mol
16 | AAAGTCACGTGGTTAT | -0.04 kcal/mol
17 | TATGTCACGTGGAGGG | 0.09 kcal/mol
18 | AATTACACGTGATATT | 0.09 kcal/mol
19 | AGCTGCACGTGTATTT | 0.09 kcal/mol
20 | TTACACACGTGTGTGG | 0.02 kcal/mol
21 | GATGTCACGTGGTGAA | 0.21 kcal/mol
22 | GTGCTCACGTGTTGAT | 0.31 kcal/mol
23 | TTCAGCACGTGTCGTG | -0.06 kcal/mol

Row | Sequence | relative binding free energy
24 | AGGTTCACGTGGGGAC | 0.11 kcal/mol
25 | TGTCTCACGTGAAGGC | 0.42 kcal/mol
26 | TTGGGCACGTGGGACG | -0.2 kcal/mol
27 | AACTGCACGTGATGTT | 0.23 kcal/mol
28 | AGCAGCACGTGGAGGT | -0.14 kcal/mol
29 | AGGGTCACGTGATTTG | 0.31 kcal/mol
30 | TGAGTCACGTGCATTT | 0.07 kcal/mol
31 | GTGCACACGTGGGCGG | -0.18 kcal/mol
32 | AATTGCACGTGAGTGG | 0.29 kcal/mol
33 | CGGTTCACGTGATCGG | 0.28 kcal/mol
34 | CTTTGCACGTGTGTGC | 0.06 kcal/mol
35 | AGGAACACGTGGTTGA | -0.08 kcal/mol
36 | ACGTGCACGTGGAGAG | -0.13 kcal/mol
37 | TTGGACACGTGGTCAA | 0.05 kcal/mol
38 | TTCATCACGTGAAAGG | 0.32 kcal/mol
39 | CGCGTCACGTGGGTTT | -0.01 kcal/mol
40 | TCTGGCACGTGGTTTT | -0.09 kcal/mol
41 | TTAGTCACGTGGGGGC | -0.04 kcal/mol
42 | CTTAGCACGTGTTGGA | -0.1 kcal/mol
43 | GTCAGCACGTGTGAGT | 0.06 kcal/mol
44 | TAGGACACGTGGGGAG | 0 kcal/mol
45 | CGGGTCACGTGTAGGA | 0.19 kcal/mol
46 | GACGGCACGTGTGTTT | 0.12 kcal/mol

Row | Sequence | relative binding free energy
47 | GTTAACACGTGGCAGG | 0.04 kcal/mol
48 | GGTGCCACGTGCGGAG | 0.01 kcal/mol
49 | GTACACACGTGTTGTT | -0.03 kcal/mol
50 | TGAAACACGTGAGTTG | 0.07 kcal/mol
51 | CGTTGCACGTGATTTT | 0.22 kcal/mol
52 | CTAAGCACGTGTAGGT | -0.2 kcal/mol
53 | ATCCTCACGTGGTGTG | 0.08 kcal/mol
54 | AATGGCACGTGGATGT | -0.12 kcal/mol
55 | AATGTCACGTGGAAGG | 0.08 kcal/mol
56 | GGGAACACGTGACGTT | 0.24 kcal/mol
57 | TGTATCACGTGGAGCA | 0.04 kcal/mol
58 | AGTTTCACGTGTTGTT | 0.29 kcal/mol
59 | TGTAGCACGTGAGTAG | 0.17 kcal/mol
60 | CGGTACACGTGTAGTG | 0.04 kcal/mol
61 | GGATACACGTGGGGAG | -0.01 kcal/mol
62 | TTGTGCACGTGTGAAT | 0.09 kcal/mol
63 | TGTTGCACGTGGTCGG | -0.08 kcal/mol
64 | CTGGTCACGTGAAGTG | 0.2 kcal/mol
65 | TACGTCACGTGGTTTA | 0.02 kcal/mol
66 | AGTGACACGTGGGGCT | -0.22 kcal/mol
67 | CGTTTCACGTGAGGTC | 0.27 kcal/mol
68 | TTATTCACGTGTTTAA | 0.11 kcal/mol
69 | GTTTTCACGTGAGTGC | 0.44 kcal/mol

Row | Sequence | relative binding free energy
70 | GGGATCACGTGTGGGG | 0.27 kcal/mol
71 | GTGTTCACGTGGACTG | 0.21 kcal/mol
72 | TGGATCACGTGTACGT | 0.1 kcal/mol
73 | GAGACCACGTGGGGTT | -0.15 kcal/mol
74 | TTCGACACGTGGCGTT | 0.04 kcal/mol
75 | TGGACCACGTGTGGCG | 0.02 kcal/mol
76 | CTTGGCACGTGGTTGT | -0.15 kcal/mol
77 | TGGTCCACGTGTGGTC | 0.16 kcal/mol
78 | GGGGACACGTGGTGGG | 0.06 kcal/mol
79 | CTCTGCACGTGGGGGC | -0.11 kcal/mol
80 | TCAGGCACGTGTGGAG | 0.04 kcal/mol
81 | GTTGGCACGTGAATAT | 0.12 kcal/mol
82 | TGGCTCACGTGAGAGT | 0.33 kcal/mol
83 | CTTATCACGTGGGCTG | -0.01 kcal/mol
84 | CTGCGCACGTGGGGAA | -0.13 kcal/mol
85 | AGGGTCACGTGGCTAT | 0.01 kcal/mol
86 | TCAATCACGTGGGGTA | 0 kcal/mol
87 | CGAGACACGTGTGGGT | 0.15 kcal/mol
88 | CTTGGCACGTGATTGT | -0.13 kcal/mol
89 | AGGTTCACGTGTACGA | 0.33 kcal/mol
90 | GGCCTCACGTGTGGGT | 0.16 kcal/mol
91 | ATATTCACGTGATATG | 0.3 kcal/mol
92 | GATTACACGTGGTGGC | 0.1 kcal/mol

Row | Sequence | relative binding free energy
93 | ATGGACACGTGGATTT | -0.05 kcal/mol
94 | CAGGTCACGTGTAGGC | 0.24 kcal/mol
95 | AGTTACACGTGAATGT | 0.1 kcal/mol
96 | GTGTTCACGTGAGACA | 0.44 kcal/mol
97 | TTTTGCACGTGGTATC | 0 kcal/mol
98 | GTGGGCACGTGTCGAG | -0.04 kcal/mol
99 | GAGCTCACGTGTGTTT | 0.3 kcal/mol
100 | TCTTTCACGTGTATTT | 0.12 kcal/mol
101 | TTGTCCACGTGGCTGT | -0.03 kcal/mol
102 | CGTGGCACGTGTTAGA | -0.02 kcal/mol
103 | GTTGACACGTGGGTCT | -0.07 kcal/mol
104 | TGGGCCACGTGCGGTG | -0.18 kcal/mol
105 | AGGGGCACGTGGGTTA | -0.23 kcal/mol
106 | GATTTCACGTGTTTTG | 0.39 kcal/mol
107 | GGACGCACGTGGCGTA | -0.05 kcal/mol
108 | GTTATCACGTGTCAAG | 0.31 kcal/mol
109 | GGTATCACGTGAACTG | 0.41 kcal/mol
110 | AGTCTCACGTGGGGTA | 0.15 kcal/mol
111 | CTAGGCACGTGTTAGG | -0.11 kcal/mol
112 | TTGGGCACGTGTTAAT | -0.06 kcal/mol
113 | AGGGTCACGTGGGGAA | 0.08 kcal/mol
114 | ATGTGCACGTGGTAAG | -0.06 kcal/mol
115 | GGGATCACGTGGGCTA | 0.02 kcal/mol
